{"source": "PubChem BioAssay AID485341", "about": "(National Center for Advancing Translational Sciences (NCATS), 2010)", "note": "Among all 330,000 compounds or so, about 1,700 (0.52%) were called active. The inconclusive results got no clear call from the source; some entries with a clear call stand among them for comparison. Calls come from the whole dose curve; as a rule, active = well fitted inhibition curve with a large enough effect; inconclusive = small, poorly fitted or top-dose-only effect; inactive = no such curve, though single readings can be large or run the other way. Potencies of inconclusive entries are doubtful fits and often do not repeat. Potency is the fitted concentration of half-maximal effect; tags give direction and shape of the fitted curve."}
{"target": "Beta-lactamase (Escherichia coli (strain K12)) (UniProt P00811)", "sequence (P00811 whole entry, looked up)": "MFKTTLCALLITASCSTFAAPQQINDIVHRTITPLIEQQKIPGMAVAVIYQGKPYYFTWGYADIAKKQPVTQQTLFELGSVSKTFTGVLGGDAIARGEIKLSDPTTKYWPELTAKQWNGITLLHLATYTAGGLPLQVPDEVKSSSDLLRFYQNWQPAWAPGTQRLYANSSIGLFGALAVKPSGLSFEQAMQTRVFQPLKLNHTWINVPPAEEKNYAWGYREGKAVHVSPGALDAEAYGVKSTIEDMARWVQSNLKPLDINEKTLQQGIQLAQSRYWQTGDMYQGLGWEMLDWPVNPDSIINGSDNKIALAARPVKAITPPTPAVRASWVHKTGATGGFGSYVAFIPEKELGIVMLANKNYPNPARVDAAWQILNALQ", "assay": "qHTS Inhibitors of AmpC Beta-Lactamase (assay without detergent); note: nearly all actives have a fitted effect of over 20% in size", "settings": "AmpC nitrocefin hydrolysis, absorbance 480 nm, 0.0001% Triton; series mostly up to 57.1 µM", "procedure,_shortened": "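20 mM phosphate pH 7.0 + 0.01% (detergent screen) or 0.0001% Triton X-100; 5.3 nM AmpC reagent; cpd preinc 15 min RT; nitrocefin (800 uM stock) to start; A480 q20 s × 4 min; Activity was normalised to no-enzyme and no-compound control wells.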"}
{"smiles": "Cc1ccc(Cn2ccc(NC(=O)c3cc(-c4cccs4)on3)n2)cc1", "Potency": "inactive"}
{"smiles": "COc1ccc(/C=C2\\SC(=S)N(CCC(=O)N(CCO)Cc3ccccc3)C2=O)cc1OC", "Potency": "inactive"}
{"smiles": "O=C(O)C1Nc2c(O)cc(Cl)c([N+](=O)[O-])c2C2C=CCC12", "note": "(stereo not drawn)", "Potency": "active: 7.08 µM"}
{"smiles": "O=C(COC(=O)CSc1ccc([N+](=O)[O-])cc1)NC1CCCCCCC1", "Potency": "active: 31.6 µM"}
{"smiles": "O=C(CSc1cccc[n+]1[O-])Nc1cc2c(cc1Cl)C(=O)c1ccccc1C2=O", "Potency": "inconclusive: 31.6 µM [inhibitor, partial curve]"}
{"smiles": "CCn1c(N2CCN(S(=O)(=O)c3ccc(OC)cc3)CC2)nc2ccccc21", "Potency": "inactive"}
{"smiles": "CN(C)CCCOC(=O)C1c2ccccc2Oc2ccccc21", "Potency": "inconclusive: 4.47 µM [inhibitor, single point]"}
{"smiles": "O=C(O)c1ccc(NC(=S)NC(=O)c2ccc3ccccc3c2)cc1", "Potency": "inactive"}
{"smiles": "O=c1cc(N2CCc3ccccc32)[nH]c(=O)n1-c1ccc(Br)cc1", "Potency": "inconclusive: 44.7 µM [inhibitor, partial curve, poor fit]"}
{"smiles": "O=C(C1=C[C@@H]2[C@H]3C(=O)N(c4cccc(Cl)c4)C(=O)[C@H]3[C@@H](C(=O)c3ccc(Cl)cc3)N2C=C1)c1ccccc1", "Potency": "active: 12.6 µM"}
{"smiles": "CCOc1ccc(C(=O)Nc2cccc(-c3ccc(N4CCOCC4)nn3)c2)cc1OCC", "Potency": "inconclusive: 39.8 µM [inhibitor, single point]"}
{"smiles": "COC(=O)[C@H](Cc1ccccc1)NC(=O)O[C@@H]1C(=O)c2cc(OC)ccc2O[C@H]1c1ccc(OC)c(Br)c1", "Potency": "inconclusive: 4.47 µM [inhibitor, single point]"}
{"smiles": "COc1cccc(S(=O)(=O)Nc2ccc(C(=O)Nc3ccncc3)cc2)c1", "Potency": "inactive"}
{"smiles": "O=c1[nH]nc(Cc2ccc(-c3ccccc3Cl)o2)c2ccccc12", "Potency": "inconclusive: 5.01 µM [inhibitor, single point]"}
{"smiles": "N#C/C(C(=O)Nc1ccc(Cl)cc1)=C(/S)Nc1ccccc1", "Potency": "inconclusive: 11.2 µM [inhibitor, partial curve]"}
{"smiles": "Oc1[nH]c2ccccc2c1N=NC(=S)NCCc1ccccc1", "Potency": "active: 25.1 µM"}
{"smiles": "CN(C)c1ccc(/C=C(/NC(=O)c2ccccc2)C(=O)N/N=C/c2ccc([N+](=O)[O-])c(O)c2)cc1", "Potency": "inconclusive: 3.98 µM [inhibitor, single point]"}
{"smiles": "COc1ccc(CCNC(=O)c2cccc(NS(=O)(=O)c3ccccc3F)c2)cc1OC", "Potency": "inconclusive: 35.5 µM [inhibitor, single point]"}
{"smiles": "N#CCC(=O)Nc1ccc(C(=O)OCC(=O)Nc2ccc3ccccc3c2)cc1", "Potency": "active: 20 µM"}
{"smiles": "COc1cccc(C2CC(c3c(Cl)cccc3Cl)n3nc(N)nc3N2)c1", "note": "(stereo not drawn)", "Potency": "active: 5.62 µM"}
{"smiles": "Cc1cc(C)c(S(C)(=O)=O)c(Oc2cccc(Cl)c2)n1", "Potency": "inconclusive: 6.31 µM [inhibitor, single point]"}
{"smiles": "O=C(/C(=N\\Nc1ccc([N+](=O)[O-])cc1)Sc1nnnn1-c1ccccc1)c1ccccc1", "Potency": "inconclusive: 1.41 µM [inhibitor, full curve, poor fit]"}
{"smiles": "Cc1ccc(NC(=O)c2cc(S(=O)(=O)NCCc3ccccc3)ccc2F)cc1Cl", "Potency": "inconclusive: 5.01 µM [inhibitor, full curve, poor fit]"}
{"smiles": "Cc1nc2ccccc2c(=O)n1-c1ccc(F)c(NS(=O)(=O)c2ccccc2F)c1", "Potency": "inconclusive: 31.6 µM [inhibitor, single point]"}
{"smiles": "COc1ccc(COc2ccsc2C(=O)Nc2ccc(Cl)cc2)cc1", "Potency": "active: 0.355 µM"}
{"smiles": "CCOc1ccc(C(=O)NC(=S)N(Cc2ccccc2)Cc2ccccc2)cc1", "Potency": "inconclusive: 3.98 µM [inhibitor, full curve]"}
{"smiles": "Fc1ccc(N2CCN(c3ncnc4nc[nH]c34)CC2)cc1", "Potency": "active: 20 µM"}
{"smiles": "CCCn1cc(SCC(=O)NCC2CCCO2)c2ccccc21", "note": "(stereo not drawn)", "Potency": "inconclusive: 0.316 µM [inhibitor, full curve, poor fit]"}
{"smiles": "Cc1ccc(C)n1N1C(=O)/C(=C\\c2ccc(Cl)cc2)SC1=S", "Potency": "inconclusive: 7.08 µM [inhibitor, full curve, poor fit]"}
{"smiles": "c1ccc(-c2noc(-c3ccc4c(c3)OCO4)n2)nc1", "Potency": "inconclusive: 6.31 µM [inhibitor, single point]"}
{"smiles": "O=C(CSc1nc2nc[nH]c2c(=O)[nH]1)NC1CCCCC1", "Potency": "inconclusive: 5.62 µM [inhibitor, single point]"}
{"smiles": "CCSC1=NC(C)(C)C=C(C)N1", "Potency": "inconclusive: 6.31 µM [inhibitor, single point]"}
{"smiles": "CCCCn1c(NC(=O)c2ccccc2Cl)c(C#N)c2nc3ccccc3nc21", "Potency": "inconclusive: 1.41 µM [inhibitor, full curve, poor fit]"}
{"smiles": "CSc1cccc(NC(=O)CNC(=O)c2ccc3c(c2)OCO3)c1", "Potency": "inconclusive: 39.8 µM [inhibitor, single point]"}
{"smiles": "N#CCC(=N)N1CCN(c2cccc(Cl)c2)CC1", "Potency": "inconclusive: 6.31 µM [inhibitor, single point]"}
{"smiles": "COc1ccc(NC(=O)c2ccc(NC3=NC4CS(=O)(=O)CC4S3)cc2)cc1", "note": "(stereo not drawn)", "Potency": "inactive"}
{"smiles": "Cc1ccnc(NS(=O)(=O)c2ccc(NC(=O)c3ccc([N+](=O)[O-])s3)cc2)n1", "Potency": "inconclusive: 39.8 µM [inhibitor, single point]"}
{"smiles": "Nc1cc(=O)[nH]c(SCC(=O)Nc2ccccc2Sc2ccccc2)n1", "Potency": "inconclusive: 3.55 µM [inhibitor, partial curve]"}
{"smiles": "COc1ccc(/C=N/NC(=O)c2ccc(NS(=O)(=O)c3cccs3)cc2)cc1", "Potency": "inconclusive: 20 µM [inhibitor, partial curve]"}
{"smiles": "CCCCCNC(=O)Cc1cc(=O)[nH]c(=O)[nH]1", "Potency": "active: 50.1 µM"}
{"smiles": "CC1(c2ccc(Cl)cc2Cl)NC(=O)N(CC(=O)Nc2cccnc2Cl)C1=O", "note": "(stereo not drawn)", "Potency": "inconclusive: 35.5 µM [inhibitor, single point]"}
{"smiles": "CCCOc1ccc(C(=O)NNC(=S)NC(=O)c2cc(-c3ccccc3)nc3ccccc23)cc1", "Potency": "active: 4.47 µM"}
{"smiles": "CCCCCCN=C(C)C1=C(O)C(C(=O)OC)C(C)(C)CC1=O", "note": "(stereo not drawn)", "Potency": "inconclusive: 8.91 µM [inhibitor, single point]"}
